Measurements taken from patent publication US20200377563A1 (Pieris, published 2020).

How the values were obtained:
human IL-17A [1] = biological target: T1, human IL-17A (human, UniProt Q16552 24-155, limits assumed); experiment: cell-based or functional assay
human IL-17A [2] = biological target: T1, human IL-17A; experiment: competition ELISA (MSD), biotinylated hIL-17A pre-incubated with binder, free hIL-17A captured on coated hIL-17RA
T1 sequence (Q16552 24-155 limits assumed): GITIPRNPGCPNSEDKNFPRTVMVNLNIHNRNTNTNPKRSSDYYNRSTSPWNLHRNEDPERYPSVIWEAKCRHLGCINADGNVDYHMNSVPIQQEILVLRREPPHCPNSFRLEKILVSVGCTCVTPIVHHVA

B1: fusion protein of SEQ ID NO: 13 (Fc fusion)
chain: [letters of human IgG1 Fc not shown]GGGGSGGGGSASDEEIQDVSGTWYLKAMTVDFWCSGIHEESVTPMTLTTLEGGNLEAKVTMDIEGFLQEFKAVLEKTDEPGKYTADGGKHVAYIIRSRVKDHYIFYSEGDCPGPVPGVWLVGRDPKNNLEALEDFEKAAGARGLSTESILIPRQSETSSPGSDGGGGSGGGGSASDEEIQDVSGTWYLKAMTVDFWCSGIHEESVTPMTLTTLEGGNLEAKVTMDIEGFLQEFKAVLEKTDEPGKYTADGGKHVAYIIRSRVKDHYIFYSEGDCPGPVPGVWLVGRDPKNNLEALEDFEKAAGARGLSTESILIPRQSETSSPGSD
B1 was tested. Which “G-CSF secretion (EC50, IL17A), n = 3” value (human IL-17A [1]) did it give?
Its value is 0.05 nM.

What about the IC50 (human IL-17A [2]) of the same binder?
Its IC50 is 0.04 nM.
